Assay results from publication PMC4336329 (PLoS ONE, 2015).
Hit rate of the full screen: of about 310,000 compounds, about 2,200 (0.71%) showed an effect of 50% or more. The effect is printed as a negative number. The list shows a part of the results.

target: human ether-à-go-go-related gene (hERG) potassium channel (human, UniProt Q12809); assay: primary screen, population patch clamp on CHO cells stably expressing hERG
Sequence (Q12809 whole entry, looked up): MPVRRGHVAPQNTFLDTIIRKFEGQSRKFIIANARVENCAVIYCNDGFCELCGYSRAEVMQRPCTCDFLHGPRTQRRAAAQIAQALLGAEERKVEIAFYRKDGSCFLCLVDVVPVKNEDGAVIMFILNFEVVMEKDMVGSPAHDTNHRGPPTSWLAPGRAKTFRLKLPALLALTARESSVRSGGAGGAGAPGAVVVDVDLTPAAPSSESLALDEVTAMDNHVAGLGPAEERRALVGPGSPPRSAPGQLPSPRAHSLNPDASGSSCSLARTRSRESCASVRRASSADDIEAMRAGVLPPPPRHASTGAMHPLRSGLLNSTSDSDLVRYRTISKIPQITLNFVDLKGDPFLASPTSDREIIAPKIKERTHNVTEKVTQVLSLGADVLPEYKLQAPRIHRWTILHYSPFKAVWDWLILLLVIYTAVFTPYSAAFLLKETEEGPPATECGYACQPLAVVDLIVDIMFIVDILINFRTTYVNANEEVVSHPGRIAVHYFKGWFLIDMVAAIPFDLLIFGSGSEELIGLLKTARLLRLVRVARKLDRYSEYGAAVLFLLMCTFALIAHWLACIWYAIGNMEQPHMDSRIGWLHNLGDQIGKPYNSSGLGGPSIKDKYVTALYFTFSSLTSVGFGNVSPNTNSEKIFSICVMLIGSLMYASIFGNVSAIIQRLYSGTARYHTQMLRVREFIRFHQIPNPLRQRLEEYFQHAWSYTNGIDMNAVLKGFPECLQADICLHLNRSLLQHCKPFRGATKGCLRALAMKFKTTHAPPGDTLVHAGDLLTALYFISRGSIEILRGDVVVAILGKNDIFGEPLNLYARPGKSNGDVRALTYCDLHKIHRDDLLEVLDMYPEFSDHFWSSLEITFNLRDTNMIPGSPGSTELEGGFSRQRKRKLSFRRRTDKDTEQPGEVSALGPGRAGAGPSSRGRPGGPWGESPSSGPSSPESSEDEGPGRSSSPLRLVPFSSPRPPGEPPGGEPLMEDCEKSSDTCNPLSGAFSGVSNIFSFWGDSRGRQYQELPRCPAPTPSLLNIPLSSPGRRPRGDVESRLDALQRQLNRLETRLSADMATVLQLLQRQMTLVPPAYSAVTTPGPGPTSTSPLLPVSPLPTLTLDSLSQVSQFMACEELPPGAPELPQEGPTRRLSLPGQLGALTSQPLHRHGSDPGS

| SMILES | hERG current change (%, negative = inhibition) at 1uM |
| --- | --- |
| COc1cccc(Cn2nnc(C(=O)Nc3ccc(C)cc3)c2N)c1 | 16.5% |
| Cc1cc(-c2nnco2)c(C)n1-c1ccc(F)cc1 | 6.92% |
| CCOc1cc(/C=N/NC(=O)COc2cccc(C)c2)ccc1OC(=O)c1cccs1 | 6.51% |
| COC(=O)Cc1c(C)c2ccc(OC(=O)c3ccco3)cc2oc1=O | 11% |
| CSc1cccc(NC(=O)CSc2ccccc2)c1 | 10.1% |
| CN1CCN(CCCNC(=O)CCN2C(=O)COc3ccccc32)CC1 | 12.2% |
| C[C@H](NC(=O)c1nc[nH]c1C(=O)NCCCCCNC(=O)OC(C)(C)C)c1ccccc1 | 7.3% |
| CCOc1ccc(/C=N/NC(=O)c2nnn(-c3nonc3N)c2-c2ccc(OCC)cc2)cc1 | 8.98% |
| CC1(C)Cc2cccc(OCC(=O)OCC(=O)NCc3ccccc3)c2O1 | -1.51% |
| COc1ccc(-c2nnc(N(C)C(=O)c3ccno3)s2)cc1 | 14.5% |
| COc1ccc(CCN2C(=O)N(c3ccc(OC)cc3)C(=O)C2CC(=O)Nc2ccc(OC)cc2)cc1 (centres unmarked) | 9.38% |
| CC(C)C(NC(=O)c1ccccc1)C(=O)OCn1nnc2ccccc2c1=O (centres unmarked) | 8.75% |
| Cc1cc(NC(=O)CSc2ncn[nH]2)no1 | -0.461% |
| CCn1c(=O)cc(SCC(=O)NCc2ccc(C)cc2)c2ccccc21 | 7.4% |
| COc1cccc(C2c3c(-c4ccccc4)n[nH]c3C(=O)N2c2ccc(C(=O)O)cc2)c1 (centres unmarked) | 5.23% |
| CC(C(=O)N1CCCc2ccccc21)N1CCN(c2ccccn2)CC1 (centres unmarked) | 14.3% |
| COCCNC(=O)c1c(N)n(CCC2=CCCCC2)c2nc3ccccc3nc12 | 8.78% |
| O=C1c2cccc3c2N(CCC3)C(=O)C1(F)c1ccccc1 (centres unmarked) | 10.7% |
| CC(=O)Nc1ccc(/C=C/c2noc(-c3ccccc3O)n2)cc1 | 21.1% |
| O=C(Nc1ccccc1N1CCCC1)c1ccc2c(c1)OCO2 | 6.41% |
| COc1ccc(S(=O)(=O)N2c3ccccc3OCC2c2ccccc2)cc1 (centres unmarked) | 13.3% |
| O=C(CSc1ccc(Cl)cc1)N1CCN(c2ncc(C(F)(F)F)cc2Cl)CC1 | 1.46% |
| CC(C)[C@H]1C(=O)Nc2ccccc2N1C(=O)N[C@@H](Cc1ccccc1)C(=O)N[C@@H](C(=O)O)c1ccccc1 | 3.63% |

| SMILES | hERG current change (%, negative = inhibition) at 1uM |
| --- | --- |
| COc1cc(OC)cc(C(=O)NCCOc2ccccc2)c1 | -6.82% |
| O=C(O)c1ccc2cccc(Cl)c2c1O | 13.2% |
| C[C@@H]1C=C(C(=O)NCc2nc3ccccc3[nH]2)O[C@H](OCCCCO)C1 | 6.25% |
| CC(C)(C)n1cnnc1Sc1ncccc1[N+](=O)[O-] | 12.3% |
| O=C(COc1ccc(Cl)cc1)NNC(=O)c1cccnc1 | 8.29% |
| COc1cc(O)c(C(CC(=O)N2CCCC2)c2cc(OC)c(OC)c(OC)c2)c(OC)c1 (centres unmarked) | 16.4% |
| CC(C)CCNC(=O)C1CCC(CNS(=O)(=O)c2cccc3nsnc23)CC1 (centres unmarked) | 10.4% |
| CC(=O)Nc1ccc(S(=O)(=O)Nc2ccccc2N2CCOCC2)cc1 | 6.27% |
| CC1(C(=O)NCc2ccc(Cl)c(Cl)c2)Oc2cccnc2NC1=O (centres unmarked) | 0.52% |
| Cc1nc2nc(-c3ccco3)nn2c(C)c1Cl | 12.5% |
| COc1ccc(NC(=O)CN2CC=C(c3ccccc3)CC2)cc1S(=O)(=O)N1CCOCC1 | 11.2% |
| Cc1csc(NC(=O)c2cc3ccccc3o2)n1 | 6.86% |
| O=C(CCC(=O)N1CCOc2ccccc21)NCCCN1CCCCC1 | 13% |
| O=C(CCNS(=O)(=O)c1ccccc1C(F)(F)F)N1CCCCCCC1 | 2.12% |
| CSc1ccccc1OCc1cc(C(=O)N2CCCC(C)C2)no1 (centres unmarked) | 16.1% |
| COc1cccc(C(=O)N(c2ccc(C)cc2)C2C=CS(=O)(=O)C2)c1 (centres unmarked) | -4.12% |
| O=c1ncn(-c2cccc(Cl)c2)c2ccccc12 | 2.16% |
| Cc1cc(NO)nc(-c2ccc(Br)cc2)n1 | 8.03% |
| COC(=O)c1sccc1-n1cccc1C(=O)C(=O)Nc1ccc(F)cc1 | -11.6% |
| COc1ccc(N(C)C(=O)c2cn(CC(C)C)c(=O)c3cc(OC)c(OC)cc23)cc1 | 9.76% |
| CCOC(=O)COc1ccc(C(=O)c2ccccc2)c(O)c1 | 8.13% |
| C/C(=N\Nc1nncc2ccccc12)c1ccc(O)cc1 | 13.1% |
| COC(=O)c1cc(NC(=O)c2ccc(C)cc2)c(=O)oc1C | 19.3% |

| SMILES | hERG current change (%, negative = inhibition) at 1uM |
| --- | --- |
| CCn1nc(NC(=O)c2ccco2)c2cc3cc(C)ccc3nc21 | 13.8% |
| COCCCNC(=O)c1cc2c(s1)CS(=O)(=O)C2 | 6.02% |
| O=S(=O)(Cc1ccc(Cl)cc1)N1CCN(Cc2ccc3c(c2)OCO3)CC1 | 11.5% |
| Cc1cc(C)cc(N2CC(C(=O)O)CC2=O)c1 (centres unmarked) | 14.2% |
| COc1ccccc1NC(=O)C1=C(C)Nc2nc(CCCO)nn2C1c1ccc2c(c1)OCO2 (centres unmarked) | 6.53% |
| Cc1ccc(CNC(=O)Cn2ccc(NC(=O)OCc3ccccc3)nc2=O)o1 | 6.84% |
| O=C(NCc1ccccn1)c1ccc(Cn2c(=S)[nH]c3ccccc3c2=O)cc1 | -5.05% |
| O=C(Cc1ccccc1)Nc1ccc2c(c1)C(=O)N(CC1CCCO1)C2=O (centres unmarked) | 8.23% |
| COc1ccccc1N1CCN(C(=O)c2cc3c(=O)n4ccccc4nc3s2)CC1.Cl | 10.6% |
| Cc1ccc2cc(C)c(NCCO)nc2c1 | 9.76% |
| CC(=O)Nc1sc(C)c(C)c1C(=O)OCC(=O)N(C)c1c(N)n(Cc2ccccc2)c(=O)[nH]c1=O | 13.4% |
| CCOc1ccc(C(C)=O)cc1CN1C(=O)NC2(CCCCCCC2)C1=O | -51.8% |
| CC1=C(C(=O)OC(C)C)C(c2ccc(Br)s2)NC(=O)N1 (centres unmarked) | -9.32% |
| O=S(=O)(c1ccccc1)c1cnn2c(C(F)(F)F)cc(-c3ccccc3)nc12 | -12.6% |
| CSc1nc2[nH]c3c(c2c2ncnn12)CCCC3 | 2.58% |
| Cc1cccc(CC(C)NC(=O)CCc2nnc(-c3ccccc3)o2)n1 (centres unmarked) | 4.96% |
| COc1ccc(OC)c(NC(=O)CSc2nnc(C3CCCCC3)o2)c1 | -2.71% |
| O=C(Nc1ccc(Cl)cc1Cl)c1ccc(-c2ccccc2)cc1 | 11% |
| CCOC(=O)N1CCN(C(=O)c2ccc(CS(=O)(=O)c3ccc(OC)cc3)o2)CC1 | -1.14% |
| COC(=O)c1ccc(NC(=O)CN2C(=O)CSC2=O)cc1 | 3.75% |
| Cc1noc(C)c1COC(=O)[C@@H](NC(=O)c1ccccc1)C(C)C | 6.45% |
| COc1ccc(CSCC(=O)NN=C2CCN(C)CC2)cc1 | 2.17% |
| CC(C)C(NC(=O)c1ccccc1)C(=O)N1CCN(C/C=C/c2ccccc2)CC1 (centres unmarked) | -3.15% |

| SMILES | hERG current change (%, negative = inhibition) at 1uM |
| --- | --- |
| CC(C)OCCCNC(=O)Cc1ccc(Br)cc1 | 14.8% |
| COc1ccc(CNC(=O)C(=O)NCC2OCCCN2S(=O)(=O)c2cccs2)cc1 (centres unmarked) | 11.4% |
| Cc1nn(C)c(C)c1/C=C(/C(=O)C(C)C)n1cncn1 | 10.1% |
| CCOC(=O)C1=C(COC(=O)c2ncc(Cl)c(Cl)c2Cl)NC(=O)NC1C (centres unmarked) | -7.95% |
| CCn1cc(C(=O)NC(=S)Nc2ccccc2[N+](=O)[O-])cn1 | 6.77% |
| CCn1c(SCc2cccc(C(=O)O)c2)nnc1-c1ccc(Cl)cc1 | 16.6% |
| CCOc1ccc(NC(=O)N2CCC(NC(=O)C(Cc3ccccc3OC)NC(C)=O)CC2)cc1 (centres unmarked) | 17.2% |
| COc1ccc(CCNC(=O)C/C(C)=N/NC(=O)c2ccc([N+](=O)[O-])cc2Cl)cc1OC | 8% |
| CC(C)Cc1nnc(NC(=O)CCC(=O)N2CCN(Cc3ccccc3)CC2)s1 | 7.68% |
| O=C(O)C(F)=C(c1ccccc1)c1ccccc1 | 15.9% |
| COc1ccccc1NC(=O)CCN1CCN(Cc2ccccc2)CC1 | 1.83% |
| Cc1ccccc1OCC(=O)N/N=C1\CCOc2c(C)cccc21 | 11.1% |
| O=C(NCCc1ccccn1)c1ccc(OC(F)F)cc1 | 6.39% |
| Cc1nn2c(nc(N3CCCCC3)c3ccccc32)c1C=O | -10.2% |
| Cn1c(=O)[nH]c(=O)c2c1nc(N1CCOCC1)n2CCc1ccccc1 | 11.5% |
| C(=N\Nc1nc2ccccc2[nH]1)/c1cccs1 | 8.27% |
| Clc1ccc(-c2nn3c(-c4ccccc4)nnc3s2)cc1 | -6.19% |
| O=C(c1ccc(Cl)cc1)c1oc2ccccc2c1CS(=O)(=O)c1ccccc1 | -18.1% |
| CC1CCCCC1NC(=O)CCS(=O)(=O)c1cc2c(cc1Cl)NC(=O)CO2 (centres unmarked) | -1.09% |
| CCCC(=O)Nc1nc(-c2ccc(OC)cc2)cs1 | 7.03% |
